Test results reported in patent US20250214977A1, “STAT6 INHIBITORS AND USES THEREOF” (Kymera Therapeutics, Inc., priority 2024, published 2025).

biological target: T1, biotinylated truncated STAT6 (123-632)-avi (Homo sapiens, UniProt P42226); experiment: Homogenous Time-Resolved Fluorescence (HTRF) binding assay; details: 0.15 nM biotinylated truncated STAT6 (123-632)-avi, 20 nM fluorescein-labeled probe, 30 minutes at room temperature
T1 sequence (P42226 123-632 limits assumed): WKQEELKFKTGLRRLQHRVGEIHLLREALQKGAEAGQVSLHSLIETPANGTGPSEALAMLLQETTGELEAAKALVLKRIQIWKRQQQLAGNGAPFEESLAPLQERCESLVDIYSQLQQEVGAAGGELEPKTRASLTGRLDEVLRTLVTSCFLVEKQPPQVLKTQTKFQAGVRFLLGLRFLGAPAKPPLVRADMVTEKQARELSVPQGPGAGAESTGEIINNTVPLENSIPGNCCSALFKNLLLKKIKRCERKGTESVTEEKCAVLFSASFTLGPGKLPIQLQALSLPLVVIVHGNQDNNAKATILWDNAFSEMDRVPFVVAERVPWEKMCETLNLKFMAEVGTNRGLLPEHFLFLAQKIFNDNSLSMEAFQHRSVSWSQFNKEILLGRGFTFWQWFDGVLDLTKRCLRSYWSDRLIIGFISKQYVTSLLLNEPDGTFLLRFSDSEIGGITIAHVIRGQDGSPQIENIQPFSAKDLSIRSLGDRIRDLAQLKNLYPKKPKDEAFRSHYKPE

| SMILES | IC50 [µM] |
| --- | --- |
| CN(C)C(=O)c1cc2ccc(C3=CCCN(C(=O)C(c4ccc(F)cc4)c4ccc(F)cc4)C3)cc2[nH]1 [Example I-160] | 1 to 10 |
| CN(C)C(=O)c1cc2ccc(C3=CCCN(C(=O)CCc4ccc(C#N)cc4)C3)cc2[nH]1 [Example I-162] | 1 to 10 |
| CN(C)C(=O)c1cc2ccc(C3=CCCN(C(=O)C4CS(=O)(=O)C4)C3)cc2[nH]1 [Example I-163] | 10 to 100 |
| CN(C)C(=O)c1cc2cc(C3=CCCN(C(=O)CCc4ncns4)C3)ccc2o1 [Example I-165] | 10 to 100 |
| CN(C)C(=O)c1cc2cc(C3=CCCN(C(=O)CCc4nncc5ccccc45)C3)ccc2o1 [Example I-168] | 10 to 100 |
| CCN[C@H](Cn1ccnn1)C(=O)N1CCC=C(c2ccc3oc(C(=O)N(C)C)cc3c2)C1 [Example I-169] | 10 to 100 |
| CC(=O)N1Cc2ccccc2CC1C(=O)N1CCC=C(c2ccc3oc(C(=O)N(C)C)cc3c2)C1 (stereo not drawn) [Example I-170] | 10 to 100 |
| CN(C)C(=O)c1cc2cc(C3=CCCN(C(=O)C4Cc5c(cccc5OCCN)CN4C=O)C3)ccc2o1 (stereo not drawn) [Example I-171] | 1 to 10 |
| CN(C)C(=O)c1cc2cc(C3=CCCN(C(=O)C4Cc5c(cccc5-n5cccn5)CN4C=O)C3)ccc2o1 (stereo not drawn) [Example I-172] | 1 to 10 |
| COC(=O)CCC#Cc1cccc2c1CC(C(=O)N1CCC=C(c3ccc4oc(C(=O)N(C)C)cc4c3)C1)N(C=O)C2 (stereo not drawn) [Example I-175] | 0.1 to 1 |
| CC(=O)NC(Cn1ccnn1)C(=O)N1CCC=C(c2ccc3oc(C(=O)N(C)C)cc3c2)C1 (stereo not drawn) [Example I-178] | 10 to 100 |
| CC(=O)N1CCC(c2cccc3c2CC(C(=O)N2CCC=C(c4ccc5oc(C(=O)N(C)C)cc5c4)C2)N(C=O)C3)CC1 (stereo not drawn) [Example I-180] | 10 to 100 |
| CN(C)C(=O)c1cc2cc(C3=CCCN(C(=O)C4Cc5c(cccc5C5CCNCC5)CN4C=O)C3)ccc2o1 (stereo not drawn) [Example I-181] | 10 to 100 |
| COC(=O)CCC#Cc1cc(C2=CCCN(C(=O)C3Cc4ccccc4CN3C=O)C2)cc2cc(C(=O)N(C)C)oc12 (stereo not drawn) [Example I-184] | < 0.1 |
| CN(C)C(=O)c1cc2cc(C3=CCCN(C(=O)C4Cc5c(cccc5-c5ccc(O)cc5)CN4C=O)C3)ccc2o1 (stereo not drawn) [Example I-187] | 10 to 100 |
| CCC(=O)N1Cc2ccccc2CC1C(=O)N1CCC=C(c2ccc3oc(C(=O)N(C)C)cc3c2)C1 (stereo not drawn) [Example I-188] | 10 to 100 |
| CC(=O)N1CCC(c2cc(C3=CCCN(C(=O)CCn4ccnn4)C3)cc3cc(C(=O)N(C)C)oc23)CC1 [Example I-190] | < 0.1 |
| CN(C)C(=O)c1cc2cc(C3=CCCN(C(=O)CCn4ccnn4)C3)cc(N3CCNCC3)c2o1 [Example I-191] | 10 to 100 |
| CN(C)C(=O)c1nc2cc(C3=CCCN(C(=O)CCn4ccnn4)C3)ccc2s1 [Example I-192] | 10 to 100 |
| CC(=O)N1CCc2ccc(CC(=O)N3CCC=C(c4ccc5oc(C(=O)N(C)C)cc5c4)C3)cc2C1 [Example I-193] | 10 to 100 |
| CN(C)C(=O)c1cc2ncc(C3=CCCN(C(=O)CCn4ccnn4)C3)cc2[nH]1 [Example I-194] | 1 to 10 |
| CN(C)C(=O)c1cc2ccc(C3=CCCN(C(=O)CCn4ccnn4)C3)nc2[nH]1 [Example I-196] | < 0.1 |
| CN(C)C(=O)c1nc2ccc(C3=CCCN(C(=O)C4Cc5ccccc5CN4C=O)C3)cc2[nH]1 (stereo not drawn) [Example I-198] | 1 to 10 |
| CN(C)C(=O)c1nc2cc(C3=CCCN(C(=O)CCc4ccccn4)C3)ccc2[nH]1 [Example I-199] | 10 to 100 |
| CN(C)C(=O)c1cc2cc(C3=CCCN(C(=O)CCc4ccccn4)C3)ccc2[nH]1 [Example I-200] | 1 to 10 |
| CN(C)C(=O)c1cc2cc(C3=CCCN(C(=O)C4Cc5ccccc5CN4C=O)C3)ccc2[nH]1 (stereo not drawn) [Example I-201] | 1 to 10 |
| CN(C)C(=O)c1cc2ccc(C3=CCCN(C(=O)C4Cc5ccccc5CN4C=O)C3)cc2[nH]1 (stereo not drawn) [Example I-202] | 0.1 to 1 |

| SMILES | IC50 [µM] |
| --- | --- |
| CNCc1cc(C2=CCCN(C(=O)CCn3ccnn3)C2)cc2cc(C(=O)N(C)C)oc12 [Example I-203] | 0.1 to 1 |
| CNc1ccc(-c2cc(C3=CCCN(C(=O)CCn4ccnn4)C3)cc3cc(C(=O)N(C)C)oc23)cc1 [Example I-204] | < 0.1 |
| CN(C)C(=O)c1cc2cc(C3=CCCN(C(=O)CCc4nccc5ccccc45)C3)ccc2o1 [Example I-206] | 10 to 100 |
| CN(C)C(=O)c1cc2cc(C3=CCCN(C(=O)C4c5ccccc5CCN4C)C3)ccc2o1 (stereo not drawn) [Example I-208] | 10 to 100 |
| CN(C)C(=O)c1cc2ccc(C3=CCCN(C(=O)CCc4ccccn4)C3)cc2[nH]1 [Example I-212] | 1 to 10 |
| NC(=O)c1cc2cc(C3=CCCN(C(=O)CCn4ccnn4)C3)ccc2o1 [Example I-213] | 10 to 100 |
| CN(C)C(=O)c1nc2cc(C3=CCCN(C(=O)CCn4ccnn4)C3)ccc2o1 [Example I-214] | 10 to 100 |
| CN(C)C(=O)c1cc2cc(C3=CCCN(C(=O)CCc4cnccn4)C3)ccc2o1 [Example I-216] | 10 to 100 |
| CN(C)C(=O)c1cc2cc(C3=CCCN(C(=O)CCn4nnc5ccccc54)C3)ccc2o1 [Example I-217] | 10 to 100 |
| CC(=O)NCc1ccccc1-c1ccccc1CC(=O)N1CCC=C(c2ccc3oc(C(=O)N(C)C)cc3c2)C1 [Example I-219] | 10 to 100 |
| CN(C)C(=O)c1cc2cc(C3=CCCN(C(=O)CCc4cccnn4)C3)ccc2o1 [Example I-220] | 0.1 to 1 |
| CN(C)C(=O)c1cc2cc(C3=CCCN(C(=O)Cc4nc5ccccc5s4)C3)ccc2o1 [Example I-221] | 10 to 100 |
| CN(C)C(=O)c1cc2cc(C3=CCCN(C(=O)CCn4ccnn4)C3)cnc2[nH]1 [Example I-222] | 0.1 to 1 |
| CN(C)C(=O)c1cc2cc(C3=CCCN(C(=O)CCn4ccnn4)C3)ncc2[nH]1 [Example I-224] | 0.1 to 1 |
| CN(C)C(=O)c1cc2cc(C3=CCCN(C(=O)CCc4ccnnc4)C3)ccc2o1 [Example I-225] | 1 to 10 |
| CN(C)C(=O)c1nc2ccc(C3=CCCN(C(=O)CCn4ccnn4)C3)cc2o1 [Example I-226] | 10 to 100 |
| CN(C)C(=O)c1nc2ccc(C3=CCCN(C(=O)CCn4ccnn4)C3)cc2s1 [Example I-227] | 0.1 to 1 |
| CN(C)C(=O)c1cc2cc(C3=CCCN(C(=O)CCc4ncccn4)C3)ccc2o1 [Example I-231] | 10 to 100 |
| CN(C)C(=O)c1nc2cc(C3=CCCN(C(=O)CCn4ccnn4)C3)ccc2[nH]1 [Example I-234] | 1 to 10 |
| CCCN(C)C(=O)c1cc2cc(C3=CCCN(C(=O)CCn4ccnn4)C3)ccc2o1 [Example I-235] | 0.1 to 1 |
| CNC(=O)c1cc2cc(C3=CCCN(C(=O)CCn4ccnn4)C3)ccc2o1 [Example I-236] | 1 to 10 |
| CN(C)C(=O)c1cc2cc(C3=CCCN(C(=O)CCc4nc5ccccc5s4)C3)ccc2o1 [Example I-237] | 1 to 10 |
| CN(C)C(=O)c1cc2cc(C3=CCCN(C(=O)[C@H]4Cc5ccc(O)cc5CN4)C3)ccc2o1 [Example I-239] | 10 to 100 |
| CN(C)C(=O)c1cn2cc(C3=CCCN(C(=O)CCn4ccnn4)C3)ccc2n1 [Example I-241] | 1 to 10 |
| CN(C)C(=O)c1cc2cc(C3=CCCN(C(=O)CCn4ccnn4)C3)ccc2s1 [Example I-243] | 1 to 10 |
| CN(C)C(=O)c1cc2cc(C3=CCCN(C(=O)CCn4ccnn4)C3)cnc2s1 [Example I-244] | 0.1 to 1 |
| CN(C)C(=O)c1cc2cc(C3=CCCN(C(=O)Cc4nc5ccccc5[nH]4)C3)ccc2o1 [Example I-245] | 10 to 100 |
